The supplement of paper PMC11417369
± gives the standard deviation of the averaged measurements. The list shows a part of the results.

Tested on: PfAP2-LT AP2 domain (GST-tagged)
Assay: gcPBM binding intensity (ln(normalized median fluorescence intensity)); higher = stronger DNA binding
In short: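 Binding intensity is defined as the maximum Masliner-normalised natural-log median intensity across replicate spots for either probe orientation. It was measured on an Agilent 4 × 180k array of primer-extended double-stranded 36-bp intergenic genomic probes and negative controls, to which GST-tagged P. falciparum DNA-binding domains made in E. coli were applied for 1 h in 1× PBS with 1% milk, 0.2 mg/ml BSA, 0.5% salmon testes DNA and 0.03% Triton X-100. Detection was by Alexa488 anti-GST antibody and scanning at 488 nm.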

Sequence | gcPBM binding intensity (ln)
CAAAATAAAAATAACACACACATTTATTTATATACA [CACACA_site6679] | 9.21 ± 0.39
ATATATGTATATTTATGTACGTATTCCTGTATAGTC [XGTACX_site5763] | 9.08 ± 0.35
TATAAAAGATTGGAATGTACATAAGAAAAAAATATA [XGTACX_site5028] | 8.71 ± 0.51
TGTGTAGGGGATATTCTACTTTAAAAATAAATATAT [CACACA_negctrl_site207] | 8.53 ± 0.35
TTCAAGATTTATTATACACACATATTAATATTTATA [CACACA_site6413] | 8.81 ± 0.33
GGCCCAACTTCTTCTGACGAAAACGTAAATTGTGTG [XGTACX_negctrl_site533] | 8.88 ± 0.35
AATCATATTAGTATGGTGCAACATATATAAATATAT | 8.87 ± 0.52
GTAACATTTTAAATATATACATATAATGTATTTATA [GTGCAC_negctrl_site344] | 8.56 ± 0.43
ATTAATTAAAAGGGAACACATAGAAATTATAAAACA [GTGCAC_negctrl_site420] | 8.76 ± 0.51
ATATATATATTATGGGGTACAAACATCAAAAGATTT [XGTACX_site3944] | 8.72 ± 0.4
TGTTGTATCAATTTTTGTACATAACACATATGTATA [XGTACX_site3666] | 8.79 ± 0.39
ATTAAACCGTGGGAGCACACACACACACACACACAT [TGCATGCA_negctrl_site72] | 10.6 ± 0.4
TTTTGTTATTATAAATAGTAACATTTGTGAATATAT [TGCATGCA_negctrl_site132] | 8.37 ± 0.48
AAGACATTTTTTTGTTGTACGTCTTCATTTATTGTA [XGTACX_site2890] | 8.93 ± 0.4
AACAAATAAAAAAAAATAAAAATAAAAATAAAAAAA [XGTACX_negctrl_site451] | 8.62 ± 0.72
TTTAAAATTATAAGGATTAAAAAAAAAAAAAATAAA [CACACA_negctrl_site114] | 8.12 ± 0.57
TTATTTATGAAGTATACACACAATATAGATTTATAT [CACACA_site6703] | 8.7 ± 0.42
AAGAATTATATTAATAGTACATATATATTAATTTAT [XGTACX_site5713] | 8.56 ± 0.44
AATATTACAATTTGGTGTACAGGTGCACATGCCTCA [XGTACX_site1730] | 8.93 ± 0.51
TCTACAATTTTAATTACACACTATAAAAAAGAAAGA [CACACA_site5624] | 8.54 ± 0.34
TAGCTTATAAGATATGCACACACAACACTTACAAAA [CACACA_site8174] | 9.38 ± 0.32
ATAATGAAAACAAGCACACATACATAAAATAAAATA [CACACA_site3257] | 9.3 ± 0.48

Sequence | gcPBM binding intensity (ln)
ATGGAAGGATAATAAAAACCTTTACCTTTCTGTTTA [GTGCAC_negctrl_site380] | 8.48 ± 0.45
ATAAATTTTTAAACAGCACACATAAATATAATATAT [CACACA_site8691] | 8.84 ± 0.4
TATTTTATATTTTATGCACACTTATAAGAAATATGT [CACACA_site5647] | 8.91 ± 0.32
ATGATTTCACAAGACACACACATACAAATTTATATA [CACACA_site3909] | 9.28 ± 0.42
CAGTATTACATGAGGACACACACAAAAAAAATATAT [CACACA_site8156] | 9.38 ± 0.49
TTAATATATTATCTGGTGCATAAACACGTTATACCT | 8.81 ± 0.53
ATAGGTTCCCAAAATGCACACCAATGAAATTATTTA [CACACA_site8081] | 8.72 ± 0.37
CAAGCTTTTTCCTTTACACACATTAGTTATTTATAT [CACACA_site6781] | 9.16 ± 0.33
ATATTATTTTAAAGTACACACATATATTAAGATATA [CACACA_site5306] | 8.71 ± 0.4
TTTAATGTTACTCCTTGTACACAAAATAGTGTTATA [XGTACX_site8416] | 8.78 ± 0.45
CTGTAAAAAATATAAACACACATAGAGATATATAAA [CACACA_site6292] | 8.96 ± 0.45
TAAGTATATTTTATATGTACTTATATATTTAATTTT [XGTACX_site4615] | 8.44 ± 0.39
TATTAATATGGTAATACACACTAATATACTTTTGTT [CACACA_site6860] | 8.89 ± 0.5
ATATATATATATATATGTACGTATTCATAAACAACA [XGTACX_site4282] | 9.47 ± 0.085
TATTTGTATATTCATTCCTGTATTCCCTTTTTTGTA [CACACA_negctrl_site1236] | 8.95 ± 0.49
AAAAAAAAAAAAAATACACACAAATAATAAAAATAA [CACACA_site1431] | 9.14 ± 0.57
TGTACGTTTTTTAACACACACACAAAAAAAAAAAAA [CACACA_site6006] | 9.04 ± 0.43
ATATATATATATGTATGTACATAATATTTTTTTTAT [XGTACX_site5551] | 9.15 ± 0.11
ATACCATATAATTATGTGAGAAAATATAATATTCAT [CACACA_negctrl_site310] | 8.74 ± 0.5
ATTTTCTTAAATAAATGTACATGGCATTAAAAGTAA [XGTACX_site5119] | 8.49 ± 0.41
AAATAAAATCATGAATGTACACAAAAATTATTGCAA [XGTACX_site5691] | 8.87 ± 0.54
TTTGAAGGAAGGGGGGGAGGGGCCATAACAAAGGAA [GTGCAC_negctrl_site408] | 9.82 ± 0.16

Sequence | gcPBM binding intensity (ln)
TTAAATATCCATATTTCACACATTTCGATATATATA [CACACA_site4208] | 8.7 ± 0.4
TATTTTAGAGAAAAAAATAAATTACAAAATGTTAGG [CACACA_negctrl_site1645] | 8.23 ± 0.54
ACTGTACTATAAAATACACACATATAAATATAAATA [CACACA_site3009] | 9.04 ± 0.39
CCTAAATAAATGGACACACACATATTTATATTTATA [CACACA_site6789] | 9.25 ± 0.42
ATAATGTCATAATTATATCCTTTGGCATAAAATAAA [XGTACX_negctrl_site574] | 8.47 ± 0.49
TATAATATTATATAATGTACGCATTTATTATTTAAA [XGTACX_site8326] | 8.42 ± 0.38
GAATGTAAATATTAAAGTACACAGAATATATCTTCA [XGTACX_site8149] | 8.77 ± 0.47
TTTAACAACTATTTCTGTACACATTTTTATATAATT [XGTACX_site4917] | 8.85 ± 0.53
TGAACCCACAAATCACGTACATATATATACACGTGT [XGTACX_site7739] | 9.18 ± 0.33
ATATACATTTTAAATTTTAATGTAACCCATGGGAGA [CACACA_negctrl_site588] | 8.46 ± 0.33
ATAAATAACTTTTAAATACACACGTAAAATATATTG [CACACA_site3302] | 8.78 ± 0.36
ATTTATATTATGAGGAGTACAATACTTATAGATGTA [XGTACX_site7510] | 8.61 ± 0.47
GATAGACACGTGCACACATGCAATACTTTATTCAGT [TGCATGCA_site778] | 9.46 ± 0.36
AAAAAAGATATATAAACACACATATTTATATACACA [CACACA_site6866] | 8.87 ± 0.47
TGTACGAGTCGTAGAGTGCAGTCTGGAGAAACGTAC [GTGCAC_site9682] | 9.07 ± 0.49
TATATACGTAATAGTAGTACTTTAAAATGCGGAAAT [XGTACX_site4597] | 9.02 ± 0.53
GAATTATATACTTATTGTACAAAAAAAAAAAAAAAA [XGTACX_site3193] | 8.36 ± 0.4
TATTCCCCCCAACACACACACACACCGACATACCAC [CACACA_site8723] | 10.8 ± 0.26
ATAAACATGTATATATTAAAAAAAAAAAAAAAAAAT [CACACA_negctrl_site92] | 8.77 ± 0.49
TTATTTATATATTGCCCACACACATGTGATTATTTA [CACACA_site1715] | 9.34 ± 0.5
AATATTTTTTGTTTTACACACATATATAAATATATA [CACACA_site3602] | 8.91 ± 0.35
AAGAAAAATTCTTCACGTACAAATAATTATATATAT [XGTACX_site7217] | 8.68 ± 0.37

Sequence | gcPBM binding intensity (ln)
TATAATATATATGTATGTACGTATGTATGATTTTGT [XGTACX_site1164] | 8.89 ± 0.43
TTTTTAATTTTTTTCACACATATATAAATACAAATA [CACACA_site5530] | 8.38 ± 0.49
AAATTACAAATAAAATGTACTCATGTTTTTATTATA [XGTACX_site7223] | 8.5 ± 0.45
TTTATAATTTATAGGCGGACAGGAAAATTTTATAAA [XGTACX_site6955] | 8.33 ± 0.4
TTTTTTAAATATATATGTACATATATCTATATATAT [XGTACX_site3461] | 8.95 ± 0.52
GCAAGGTCCACACTGGTGCATTAAAAATAAAATATA [GTGCAC_site9956] | 8.66 ± 0.52
TGAACAGGTCATAATTTACACACTATATATTTTATT [CACACA_site8123] | 8.91 ± 0.5
TTTTTCTTTTTTTGTTGTACATTTTGTAATATTTAC [XGTACX_site4102] | 8.92 ± 0.58
TACAGGAATATTTTTACACACTAAAAGTTATAAACT [CACACA_site6876] | 8.71 ± 0.44
TTTCTTATATTATATAAATATATAGATGTTAATGGT [CACACA_negctrl_site706] | 8.42 ± 0.47
AATATAATATAATGCACACATAAAAAAAAAAAAAAA [CACACA_site304] | 8.96 ± 0.46
TATTACAAAAATGTGTTATTATATAAACGTATAGAG [XGTACX_negctrl_site529] | 8.64 ± 0.39
GTAAAATAAATAATATAAATAAAATGAAATGAAACA [TGCATGCA_negctrl_site519] | 8.86 ± 0.51
ATTTTTTTTTTTTTTTTTAATTTATGTTGTTATTTT [CACACA_negctrl_site944] | 8.8 ± 0.51
AAGTTTAAAGGAATTACACAAACAAGCAAATATATA [CACACA_negctrl_site857] | 8.8 ± 0.52
GAACCGTTTTTATGTAGTACATATGTATATATATAT [XGTACX_site1577] | 9.12 ± 0.3
ATATATATATATATAGTGCAAATAAAAAATAGACAA [GTGCAC_site9796] | 9.21 ± 0.43
TAATATATTAAAAGAAGTACATTTCTGATTTAATAG [XGTACX_site6403] | 8.32 ± 0.49
ATTATATAATAATAAAGTACTAATATTTTTAAAAGA [XGTACX_site235] | 8.49 ± 0.51
AGTAAATATATTATATGTACGTATCATAAAATATAT [XGTACX_site1567] | 8.79 ± 0.45
TTAATATTAAAATATAAACACACAAAATTCAATTAT [CACACA_site9262] | 8.71 ± 0.43
